The source of these data is the antibiotic and cytotoxicity screens of Wong et al. (2023).

The list shows a part of the results.

The test deals with HepG2. Briefly: cytotoxicity call (relative viability < 0.9). Conditions: 10 µM.
On to `COc1ccc(S(=O)(=O)N2C[C@@H](O)COC[C@H]3O[C@H](CC(=O)N[C@H]4CCN(Cc5ccccc5)C4)CC[C@@H]32)cc1`, for which the cytotoxicity call is “inactive”.
Regarding `C[C@H](CO)N1C[C@H](C)[C@H](CN(C)C(=O)Nc2ccc(F)cc2)Oc2ccc(NC(=O)Cn3cnnn3)cc2CC1=O`, the cytotoxicity call was “inactive”.
As to `CO[C@H]1CN(C)C(=O)c2cc(NC(=O)CC(F)(F)F)ccc2OC[C@H](C)N(S(=O)(=O)c2cn(C)cn2)C[C@@H]1C`, the cytotoxicity call was “inactive”.
The result for `COc1ccc(NC(=O)Nc2ccc3c(c2)C(=O)N([C@H](C)CO)C[C@@H](C)[C@H](CN(C)Cc2ccc4c(c2)OCO4)OCCCC[C@H](C)O3)cc1` reads “inactive”.
The result for `C[C@H]1CN([C@@H](C)CO)S(=O)(=O)c2ccc(C#CC3CC3)cc2O[C@@H]1CN(C)Cc1cccc(F)c1` reads “inactive”.
The result for `C[C@H](CO)N1C[C@H](C)[C@H](CN(C)C(=O)CN(C)C)Oc2cc(C#CC(C)(C)O)ccc2S1(=O)=O` reads “inactive”.
`CN(C)CCc1c[nH]c2ccc(CC3COC(=O)N3)cc12` (stereo not given): the cytotoxicity call is “inactive”.
Then `Cc1noc(C)c1S(=O)(=O)Nc1ccc2c(c1)C(=O)N([C@H](C)CO)C[C@@H](C)[C@@H](CN(C)CC1CCCCC1)OCCCC[C@@H](C)O2`, with “inactive”; and `COc1ccc(S(=O)(=O)N(C)C[C@@H]2OCCCC[C@H](C)Oc3ccc(NC(=O)Nc4ccc(F)cc4)cc3C(=O)N([C@@H](C)CO)C[C@H]2C)cc1`, with “inactive”.
Consider `O=c1[nH]c(=O)c2cc(Br)ccc2[nH]1`, for which the cytotoxicity call is “active”.
In the case of `C[C@@H]1CN([C@H](C)CO)C(=O)c2cc(NS(C)(=O)=O)ccc2O[C@@H](C)CCCCO[C@H]1CN(C)C(=O)Nc1ccc(C(F)(F)F)cc1`, the cytotoxicity call is “inactive”.
Turning to `COc1ccc([Si](C)(C)[C@H]2[C@H](CCO)O[C@@]3(C(=O)N(Cc4ccc(N(C=O)c5ccccc5)cc4)c4ccccc43)[C@@H]2C)cc1`, the cytotoxicity call is “active”.
As to `C[C@@H]1CN([C@@H](C)CO)C(=O)c2cc(C3=CCCC3)cnc2O[C@H]1CN(C)S(=O)(=O)c1cn(C)cn1`, the cytotoxicity call was “inactive”.
Then `C[C@@H]1CN([C@@H](C)CO)C(=O)c2cc(NC(=O)Cc3cn(C)c4ccccc34)ccc2O[C@@H]1CN(C)CC1CCCCC1`, with “inactive”; and `CCS(=O)(=O)Nc1ccc2c(c1)C(=O)N(C)C[C@@H](OC)[C@H](C)CN(Cc1nccs1)[C@H](C)CO2`, with “inactive”.
With `CCNC(=O)C[C@@H]1CC[C@@H](NC(=O)C2CC2)[C@@H](CO)O1`, the cytotoxicity call is “inactive”.
Turning to `CC(C)(C)[S@@](=O)N1Cc2cc(C(=O)NCc3ccc4c(c3)OCO4)nc(-c3cccc(-c4cccnc4)c3)c2[C@H]1CCO`, the cytotoxicity call is “inactive”.
For the molecule `Cc1noc(C)c1S(=O)(=O)N(C)C[C@@H]1Oc2ccc(NC(=O)Nc3ccc4c(c3)OCO4)cc2CC(=O)N([C@H](C)CO)C[C@@H]1C`, the cytotoxicity call is “inactive”.
With `C[C@@H]1CN([C@H](C)CO)C(=O)c2c(c3ccccc3n2C)-c2ccccc2CO[C@H]1CN(C)Cc1ccc(O)cc1`, the cytotoxicity call is “inactive”.
Turning to `Cc1noc(C)c1NC(=O)N[C@H]1C=C[C@@H](CC(=O)N2CCN(C)CC2)O[C@H]1CO`, the cytotoxicity call is “inactive”.
As for `C[C@@H]1CN([C@@H](C)CO)C(=O)c2cc(NC(=O)CCC(F)(F)F)ccc2O[C@@H](C)CCCCO[C@@H]1CN(C)C(=O)CCC(F)(F)F`, the cytotoxicity call is “inactive”.
The result for `NCC[C@@H]1CC[C@@H](NC(=O)C2CC2)[C@H](CO)O1` reads “inactive”; that for `C[C@@H]1CCCCO[C@H](CN(C)C(=O)NC2CCCCC2)[C@H](C)CN([C@H](C)CO)C(=O)c2cc(NC(=O)Cc3ccccc3)ccc2O1`, “inactive”.
With `O=C(Nc1ccc(C(=O)Nc2ccc(C(=O)Nc3ccc(S(=O)(=O)O)c4cc(S(=O)(=O)O)cc(S(=O)(=O)O)c34)cc2)cc1)Nc1ccc(C(=O)Nc2ccc(C(=O)Nc3ccc(S(=O)(=O)O)c4cc(S(=O)(=O)O)cc(S(=O)(=O)O)c34)cc2)cc1`, the cytotoxicity call is “inactive”.
Consider `NC1CCN(C(=O)c2c[nH]c3ccccc23)CC1`, for which the cytotoxicity call is “inactive”.
Turning to `N[C@@H]1CC[C@@H](CCn2cc(C3(O)CCCC3)nn2)O[C@H]1CO`, the cytotoxicity call is “inactive”.
`NC1CONC1=O` (stereo not given): the cytotoxicity call was “inactive”.
On to `C[C@@H]1CN([C@@H](C)CO)S(=O)(=O)c2ccc(Br)cc2O[C@@H]1CN(C)C(=O)NC1CCCCC1`, for which the cytotoxicity call was “inactive”.
Turning to `NC(Cc1c[nH]c2ccccc12)C(=O)O` (stereo not given), the cytotoxicity call was “inactive”.
The result for `Cc1ccc(S(=O)(=O)Nc2ccc3c(c2)C(=O)N([C@@H](C)CO)C[C@@H](C)[C@H](CN(C)S(=O)(=O)c2ccc(Cl)cc2)OCCCC[C@@H](C)O3)cc1` reads “inactive”.
With `COc1ccc(S(=O)(=O)Nc2cccc3c2O[C@H](CN(C)S(=O)(=O)c2c(C)noc2C)[C@@H](C)CN([C@H](C)CO)C3=O)cc1`, the cytotoxicity call was “inactive”.
In the case of `C[C@H]1CN([C@@H](C)CO)C(=O)c2cc(C#CCN(C)C)cnc2O[C@@H]1CN(C)Cc1ccc(C(=O)O)cc1`, the cytotoxicity call was “inactive”.
Turning to `NC(=O)C1(N2CCCCC2)CCN(CCCC(=O)c2ccc(F)cc2)CC1`, the cytotoxicity call is “inactive”.
The result for `C[C@H]1CN([C@@H](C)CO)S(=O)(=O)c2ccc(-c3cncnc3)cc2O[C@@H]1CN(C)C(=O)c1cccc(F)c1` reads “inactive”; that for `NCC[C@H]1CC[C@H](NC(=O)Cc2ccncc2)[C@H](CO)O1`, “inactive”.
In the case of `COCC(=O)N1C[C@@H](C)[C@@H](OC)CN(C)C(=O)c2ccc(NC(=O)c3ccc(OC)cc3)cc2OC[C@H]1C`, the cytotoxicity call was “inactive”.
For `CC(C(=O)O)c1ccc(-c2ccccc2)c(F)c1` (stereo not given), the cytotoxicity call was “inactive”.
For `C[C@@H]1CN([C@H](C)CO)C(=O)c2cc(NC(=O)c3ccccc3)ccc2O[C@@H](C)CCCCO[C@H]1CN(C)C(=O)Cc1ccccc1`, the cytotoxicity call is “inactive”.
As to `Cc1ccc(S(=O)(=O)N(C)C[C@@H]2Oc3ccc(NS(=O)(=O)c4ccccc4)cc3C(=O)N([C@H](C)CO)C[C@H]2C)cc1`, the cytotoxicity call is “inactive”.
In the case of `O=C1N[C@@H](Cc2ccccc2)C(=O)N2[C@@H]1C[C@@H](C(=O)NCc1ccc(F)cc1)[C@H]2c1cccc(OCCO)c1`, the cytotoxicity call is “inactive”.
